# From ChEMBL document CHEMBL5052851, “Mettl3 modulators” (2021)
# Tested on: not listed separately
# Experiment: Inhibition of METTL16 (unknown origin) using CGAUACAGAGAAGAUUAGCAUACGCAAAUUCGUGAAGCG-biotin and SAM as substrates preincubated for 5 mins followed by substrate addition incubated for 220 mins by TopCount scintillation counting method
# Set-up: species or system Homo sapiens
row,IC50 [µM],Compound
1,≥ 1,Cc1cc(N)c2ccc(OCc3cncc(-n4cc(Cl)c5c(N)ncnc54)c3)cc2n1
2,≥ 1,CNc1ccc2ccc(OCc3cncc(-n4cc(C5CCN(C)CC5)c5c(N)ncnc54)c3)cc2n1
3,≥ 1,CNc1ccc2ccc(OCc3nnc(-n4cc(Cl)c5c(N)ncnc54)s3)cc2n1
4,≥ 1,CNc1ccc2ccc(CCc3cncc(-n4cc(Cl)c5c(N)ncnc54)c3)cc2n1
5,≥ 1,CNc1ccc2ccc(CN(C)c3cccc(-n4cc(Br)c5c(N)ncnc54)c3)cc2n1
6,≥ 1,CNc1ccc2ccc(OCc3cncc(-n4cc(C5CCCC5)c5cncnc54)c3)cc2n1
7,≥ 1,Nc1ncnc2c1c(Cl)cn2-c1cncc(COc2ccc3ccc(NCC4CC4)nc3c2)c1
8,≥ 1,CNc1ccc2ccc(OCc3cc(O)cc(-n4cc(Cl)c5c(N)ncnc54)c3)cc2n1
9,≥ 1,CNc1ccc2ccc(OCc3cncc(-n4ccc5c(C)ncnc54)c3)cc2n1
10,≥ 1,CNc1ccc2ccc(OCc3cncc(-n4ccc5c(N)nc(NC)nc54)c3)cc2n1
11,≥ 1,C[C@@H]1CCN1c1ccc2ccc(OCc3cncc(-n4cc(C5CCCC5)c5c(N)ncnc54)c3)cc2n1
12,≥ 1,CNc1ccc2ccc(CNc3cccc(-n4cc(Br)c5c(N)ncnc54)c3)cc2n1
13,≥ 1,CNc1ccc2ccc(OCc3cc(OC)cc(-n4cc(Cl)c5c(N)ncnc54)c3)cc2n1
14,≥ 1,Nc1ncnc2c1ccn2-c1cncc(COc2ccc3ccc(N4CCCC4)nc3c2)c1
15,≥ 1,Nc1ncnc2c1c(Cl)cn2-c1cccc(COc2ccc3ccc(NCC4CC4)nc3c2)c1
16,≥ 1,Nc1ncnc2c1c(Cl)cn2-c1cncc(COc2ccc3ccc(N4CCCC4)nc3c2)c1
17,≥ 1,CNc1ccc2ccc(OCc3cncc(-n4ccc5c(N)nc(N)nc54)c3)cc2n1
18,≥ 1,CNc1ccc2ccc(OCc3cccc(-n4cc(CC5CC5)c5c(N)ncnc54)c3)cc2n1
19,≥ 1,CNc1ccc2ccc(OCc3cc(F)cc(-n4cc(Cl)c5c(N)ncnc54)c3)cc2n1

row,IC50 [µM],Compound
1,≥ 1,CNc1ccc2ccc(OCc3cc(-n4cc(Cl)c5c(N)ncnc54)ccc3F)cc2n1
2,≥ 1,CNc1ccc2ccc(OCc3cncc(-n4cc(CCN(C)C)c5c(N)ncnc54)c3)cc2n1
3,≥ 1,CNc1ccc2ccc(OCc3cc(-n4cc(Cl)c5c(N)ncnc54)ncn3)cc2n1
4,≥ 1,CNc1ccc2ccc(OCc3cccc(-c4c[nH]c5c(N)ncnc45)c3)cc2n1
5,≥ 1,CNc1ccc2ccc(OCc3cccc(-n4cc(Br)c5c(N)ncnc54)c3)cc2n1
6,≥ 1,CNc1ccc2ccc(OCc3cc(C#N)cc(-n4ccc5c(N)ncnc54)c3)cc2n1
7,≥ 1,CNc1ccc2ccc(OCc3cccc(-n4cc(CCN(C)C)c5c(N)ncnc54)c3)cc2n1
8,≥ 1,CNc1ccc2ccc(OCc3cccc(-n4ccc5c(N)ncnc54)c3F)cc2n1
9,≥ 1,CNc1ccc2ccc(OCc3cccc(-n4cc(C5CC5)c5c(N)ncnc54)c3)cc2n1
10,≥ 1,C[C@H]1CCN1c1ccc2ccc(OCc3cncc(-n4cc(C5CCCC5)c5c(N)ncnc54)c3)cc2n1
11,≥ 1,CCc1ncc(-n2cc(Cl)c3c(N)ncnc32)cc1COc1ccc2ccc(NC)nc2c1
12,≥ 1,CNc1ccc2ccc(OCc3ccnc(-n4cc(Cl)c5c(N)ncnc54)c3)cc2n1
13,≥ 1,Cc1cc(N)c2ccc(OCc3cccc(-n4cc(Cl)c5c(N)ncnc54)c3)cc2n1
14,≥ 1,CC(C)Nc1ccc2ccc(OCc3cncc(-n4cc(Cl)c5c(N)ncnc54)c3)cc2n1
15,≥ 1,Cc1cc(N)c2ccc(OCc3cccc(-n4ccc5c(N)ncnc54)c3)cc2n1
16,≥ 1,CNc1ccc2ccc(OCc3cc(-n4cc(Cl)c5c(N)ncnc54)cnc3N)cc2n1
17,≥ 1,CNc1ccc2ccc(OCc3cccc(-n4cc(C5CCCC5)c5c(N)ncnc54)c3)cc2n1
18,≥ 1,CNc1ccc2ccc(OCc3cccc(-n4ccc5c(N)ncnc54)c3)cc2n1
19,≥ 1,CNc1ccc2ccc(OCc3cccc(-n4cc(Cl)c5c(N)ncnc54)n3)cc2n1

# Target: N6-adenosine-methyltransferase catalytic subunit (Homo sapiens, UniProt Q86U44)
# Experiment: Inhibition of METTL3 (unknown origin) using UCUGGACUAAA-biotin and 3H-SAM as substrates preincubated for 5 mins followed by substrate addition incubated for 30 mins by TopCount scintillation counting method
# UniProt Q86U44, sequence (Q86U44 whole entry): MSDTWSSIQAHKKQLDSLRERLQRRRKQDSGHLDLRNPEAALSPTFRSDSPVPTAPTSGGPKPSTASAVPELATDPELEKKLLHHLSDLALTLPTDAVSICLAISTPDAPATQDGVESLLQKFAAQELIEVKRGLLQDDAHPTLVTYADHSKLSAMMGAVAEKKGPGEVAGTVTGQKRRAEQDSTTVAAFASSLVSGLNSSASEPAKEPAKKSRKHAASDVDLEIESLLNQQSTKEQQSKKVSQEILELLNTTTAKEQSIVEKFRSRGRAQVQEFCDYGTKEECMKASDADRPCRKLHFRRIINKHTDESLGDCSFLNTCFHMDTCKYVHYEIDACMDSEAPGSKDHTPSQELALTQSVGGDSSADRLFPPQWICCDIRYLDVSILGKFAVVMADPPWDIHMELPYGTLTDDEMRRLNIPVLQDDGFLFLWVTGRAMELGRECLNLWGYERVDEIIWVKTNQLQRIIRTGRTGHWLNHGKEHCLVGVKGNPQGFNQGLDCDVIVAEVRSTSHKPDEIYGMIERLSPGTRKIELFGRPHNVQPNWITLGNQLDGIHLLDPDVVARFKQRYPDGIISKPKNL
row,IC50 [µM],Compound
1,< 0.01,Cn1ccc(-c2cn(-c3cncc(CSc4ccc5ccc(N6CCC6)nc5c4)c3)c3ncnc(N)c23)n1
2,< 0.01,CCc1cc(N2CCNCC2)c2ccc(OCc3cncc(-n4cc([C@@H]5CCCO5)c5c(N)ncnc54)c3)cc2n1
3,≥ 1,CN(Cc1cncc(-n2cc(-c3ccn(C)n3)c3c(N)ncnc32)c1)CC1CC1
4,≥ 1,Nc1ncnc2c1c(Cl)cn2-c1cccc(COc2ccc3ccc(N4CCCC4)nc3c2)c1
5,≥ 1,CNc1ccc2ccc(OCc3nnc(-n4cc(Cl)c5c(N)ncnc54)s3)cc2n1
6,≥ 1,Cn1ccc(-c2cn(-c3cncc(COc4ccc5ccc(N6CCC6=O)nc5c4)c3)c3ncnc(N)c23)n1
7,≥ 1,Cn1ccc(-c2cn(-c3cncc(CS(=O)(=O)c4ccc5ccc(N6CCC6)nc5c4)c3)c3ncnc(N)c23)n1
8,≥ 1,CNc1ccc2ccc(CN(C)c3cccc(-n4cc(Br)c5c(N)ncnc54)c3)cc2n1
9,≥ 1,Nc1cc(OCc2cncc(-n3cc(Br)c4c(N)ncnc43)c2)ccc1C(=O)N1CCNCC1
10,≥ 1,CCc1cc(NCCOC)c2c(F)cc(OCc3cncc(-n4cc(C5CCCO5)c5c(N)ncnc54)n3)cc2n1 (configuration not stated)
11,< 0.01,Nc1ncnc2c1c([C@@H]1CCCO1)cn2-c1cncc(COc2ccc3ccc(N4CCC4)nc3c2)n1
12,≥ 1,CNc1ccc2ccc(OCc3cncc(-n4ccc5c(N)nc(NC)nc54)c3)cc2n1
13,≥ 1,Cn1ccc(-c2cn(-c3cncc(CNC(=O)Cc4cccc(N5CCC5)n4)c3)c3ncnc(N)c23)n1
14,< 0.01,Cn1ccc(-c2cn(-c3cncc(COc4ccc5ccc(N6CC(F)(F)C6)nc5c4)c3)c3ncnc(N)c23)n1
15,≤ 0.1,CCc1cc(NCCN(C)C)c2ccc(CCc3cncc(-n4cc([C@@H]5CCCO5)c5c(N)ncnc54)c3)cc2n1
16,< 0.01,CCc1nc(N)c2ccn(-c3cncc(COc4ccc5ccc(NC)nc5c4)c3)c2n1
17,≥ 1,CN(CC1CC1)C(=O)c1ccc(OCc2cncc(-n3cc(-c4ccn(C)n4)c4c(N)ncnc43)c2)cc1N
18,≥ 1,CN(C)CCNC(=O)c1ccc(OCc2cncc(-n3cc(Br)c4c(N)ncnc43)c2)cc1N
19,≥ 1,Cn1ccc(-c2cn(-c3cncc(COc4ccc5cnc(N6CCC6)nc5c4)c3)c3ncnc(N)c23)n1
20,< 0.01,CC(C)(C)c1cc(N)c2ccc(OCc3cncc(-n4ccc5c(N)ncnc54)c3)cc2n1
21,< 0.01,CCc1cc(NCCN(C)C)c2ccc(OCc3cncc(-n4ccc5c(N)ncnc54)n3)cc2n1
22,≥ 1,CCc1cc(N2CCC2)nc2cc(F)cc(OCc3cncc(-n4cc(C5CCCO5)c5c(N)ncnc54)c3)c12 (configuration not stated)
23,≥ 1,Nc1ncnc2c1c(Cl)cn2-c1nnc(COc2ccc3ccc(N4CCCC4)nc3c2)s1
24,< 0.01,CC(C)c1cc(N)c2ccc(OCc3cncc(-c4c[nH]c5c(N)ncnc45)c3)cc2n1
25,≥ 1,Nc1ncnc2c1c(C1CCCO1)cn2-c1cncc(COc2cnc3ccc(N4CCC4)nc3c2)c1 (configuration not stated)
26,< 0.01,CCc1cc(NCCN(C)C)c2ccc(CCc3cncc(-n4cc([C@H]5CCCO5)c5c(N)ncnc54)c3)cc2n1
27,≥ 1,CN(C)C(=O)c1ccc(OCc2cncc(-n3cc(-c4ccn(C)n4)c4c(N)ncnc43)c2)cc1N

row,IC50 [µM],Compound
1,≥ 1,Cn1ccc(-c2cn(-c3cncc(COc4ccc(C(=O)N5CCC(F)(F)CC5)c(N)c4)c3)c3ncnc(N)c23)n1
2,≥ 1,CNc1ccc2ccc(OCc3cc(-n4cc(Cl)c5c(N)ncnc54)ncn3)cc2n1
3,≥ 1,Nc1ncnc2c1ccn2-c1cncc(COc2ccc3c(=O)cc[nH]c3c2)c1
4,≥ 1,COc1ccccc1-c1cn(-c2cncc(COc3ccc4ccc(N5CCC5)nc4c3)c2)c2ncnc(N)c12
5,≥ 1,Cn1ccc(-c2cn(-c3cncc(COc4ccc(C(=O)N5CCOCC5)c(N)c4)c3)c3ncnc(N)c23)n1
6,< 0.01,CCNc1ccc2ccc(CCc3cncc(-n4cc([C@@H]5CCCO5)c5c(N)ncnc54)n3)cc2n1
7,< 0.01,Nc1ncnc2c1c(C1CCCC1)cn2-c1cncc(COc2ccc3ccc(N4CCC4)nc3c2)c1
8,≤ 1,Cn1ccc(-c2cn(-c3cncc(COc4ccc5ccc(N6CC(CO)(CO)C6)nc5c4)c3)c3ncnc(N)c23)n1
9,≥ 1,Cn1ccc(-c2cn(-c3cncc(C[S+]([O-])c4ccc5ccc(N6CCC6)nc5c4)c3)c3ncnc(N)c23)n1 (configuration not stated)
10,≥ 1,CN(CCO)C(=O)c1ccc(OCc2cncc(-n3cc(-c4ccn(C)n4)c4c(N)ncnc43)c2)cc1N
11,≥ 1,Cn1ccc(-c2cn(-c3cncc(COC(=O)Nc4cccc(Br)n4)c3)c3ncnc(N)c23)n1
12,≥ 1,Cn1ccc(-c2cn(-c3cncc(COC(=O)Nc4cccc(N5CCC5)n4)c3)c3ncnc(N)c23)n1
13,≥ 1,CNc1ccc2ccc(OCc3ncc(-n4cc(Cl)c5c(N)ncnc54)s3)cc2n1
14,≥ 1,COCCN(C)C(=O)c1ccc(OCc2cncc(-n3cc(-c4ccn(C)n4)c4c(N)ncnc43)c2)cc1N
15,≥ 1,Cn1ccc(-c2cn(-c3cncc(COc4ccc5ccc(N6CCOCC6=O)nc5c4)c3)c3ncnc(N)c23)n1
16,< 0.01,Nc1ncnc2c1c(CO)cn2-c1cncc(COc2ccc3ccc(N4CCC4)nc3c2)c1
17,< 0.01,Cn1ccc(-c2cn(-c3cncc(COc4ccc5ccc(N6CC(=O)C6)nc5c4)c3)c3ncnc(N)c23)n1
18,≥ 1,CC1COc2ccc(OCc3cncc(-n4cc(-c5ccn(C)n5)c5c(N)ncnc54)c3)cc2N1 (configuration not stated)
19,≥ 1,Cn1ccc(-c2cn(-c3cncc(COc4ccc(-c5ncco5)c(N)c4)c3)c3ncnc(N)c23)n1
20,≥ 1,CCc1cc(N2CCC2)nc2cc(OCc3cncc(-n4cc(C5CCCO5)c5c(N)ncnc54)c3)cc(F)c12 (configuration not stated)
21,≥ 1,Nc1ncnc2c1c(Cl)cn2-c1csc(COc2ccc3ccc(N4CCCC4)nc3c2)n1
22,≥ 1,CN(C)CCNC(=O)c1ccc(OCc2cncc(-n3ccc4c(N)ncnc43)c2)cc1N
23,≥ 1,Cn1ccc(-c2cn(-c3cncc(COc4cc(F)ccc4C(=O)NC4CCOCC4)c3)c3ncnc(N)c23)n1
24,≥ 1,Nc1cc(OCc2cncc(-n3ccc4c(N)ncnc43)c2)ccc1C(=O)N1CCNCC1
25,≥ 1,Cn1ccc(-c2cn(-c3cncc(COc4ccc5ccc(N6CCCC6=O)nc5c4)c3)c3ncnc(N)c23)n1
26,≥ 1,Cn1ccc(-c2cn(-c3cncc(CNC(=O)Nc4cccc(N5CCC5)n4)c3)c3ncnc(N)c23)n1
27,< 0.01,Nc1ncnc2c(-c3cncc(COc4ccc5ccc(N6CCC6)nc5c4)c3)c[nH]c12
